T1: UNK ZnF1-3 (human, UniProt Q9C0B0 31-174)
T1 sequence: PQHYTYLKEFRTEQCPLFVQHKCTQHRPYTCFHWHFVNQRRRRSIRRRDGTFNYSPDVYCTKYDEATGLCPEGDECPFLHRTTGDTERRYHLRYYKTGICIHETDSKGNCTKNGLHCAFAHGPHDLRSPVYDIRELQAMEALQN

B1: chr9:72466633:72466634:+_ENSMUSG00000037674_ENSMUST00000093820|mus_mus|FALSE|FALSE (ssRNA)
RNA: GGGAGUUCUACAGUCCGACGAUCCUGAUAUGACUGUCCAGGUACAGCAAAAGCAUGAGGUUUCCUGAAACGAUCUUCUACUAGUUCCUGAUAGCUUGGGAGAAUGCCAUGACCAGAAACCGAUGAAUUACCAACCCCACCAUACAACAGAGGAUUGAGCAUCA
B2: chr14:59855892:59855893:+_ENSMUSG00000035469_ENSMUST00000043227|mus_mus|FALSE|FALSE (ssRNA)
RNA: GGGAGUUCUACAGUCCGACGAUCGCUUCCAUUAUUAUAUCAGAAGAAAACAUUAAUUUCAAUAAUAGUUUCUUGCUUUCUAUGAUUAUAACCAAAACCAAGUAGAAAAAUAAAAAGAUUGCAUUUAAAAAAAAUUUGCAAACCCAACAGAGGAUUGAGCAUCA
B3: chr1:58468927:58468928:-_ENSMUSG00000026034_ENSMUST00000148330|mus_mus|mus_mus_mus_hu_False|48_78 (ssRNA)
RNA: GGGAGUUCUACAGUCCGACGAUCAAUUACUGAAAAAGAUGUUCAUUACCUUAGCUAGGCCAUGUAUGAACCAAAUUACCCAAACAACAUAAAAUGUGCAAUAUAAAAAUGUUAAGAAUUUACAAAGCUGUACAAAAUAACUUACAACAGAGGAUUGAGCAUCA
B4: chr1:220276048:220276049:+_ENSG00000067704_ENST00000302637|hu_hu|hu_hu_hu_mus_True|28_98 (ssRNA)
RNA: GGGAGUUCUACAGUCCGACGAUCGCAAAUUGCCUGGUUGGCUGGAAUUGUCCAAGGCUGGGUGGUCCAAACUAAAACGCUAACAGGGGAUGAGGCAUCUGUAAGAGAUGCCAAUUUCGGAGGAGGUCUCAGGAGGGGGAAUCUCAACAGAGGAUUGAGCAUCA
B5: chr5:56168760:56168761:+_ENSG00000095015_ENST00000399503|hu_hu|FALSE|FALSE (ssRNA)
RNA: GGGAGUUCUACAGUCCGACGAUCUCUAGAAAAUAAGCAGCCAACGAGUUCCAUUCCAAACACCUGAAUCCAUGGCUCAGCUAAAUCUUUGUAAGCAGGAGGGAUUUGCUGAGUUCCAUAAUGAGUAAGGUUAAAAUUGCUCUCCAACAGAGGAUUGAGCAUCA
B6: chr15:73134924:73134925:-_ENSMUSG00000022607_ENSMUST00000110036|mus_hu|FALSE|FALSE (ssRNA)
RNA: GGGAGUUCUACAGUCCGACGAUCAUCAAAUCUGUAGACUGGAGACAGGAUCUCAAAGAAUUUCAGAAUACUUUCUUCUCUAUUAAGGUUGGCAAAUUGUCUAAAUGUUUGUUGGAUCAGUUUUCUUAGUGUUUUGGCCUUGACCAACAGAGGAUUGAGCAUCA
B7: chr11:47074021:47074022:+_ENSG00000149179_ENST00000278460|hu_mus|motif|central (ssRNA)
RNA: GGGAGUUCUACAGUCCGACGAUCACCAUUUUUCCCUACAGUUCGGAAGCAUCUCCAGAAGGCCCGAAGGAAUGAUGCUCGGUUAUGAGGUGUGGCUUGUAUAAAGCUGAAUUCCCGGAAGAGAAUGUGAGUUCCUUGGCAUACCAACAGAGGAUUGAGCAUCA
B8: chr7:65705844:65705845:+_ENSG00000169902_ENST00000304842|hu_mus|hu_hu_hu_mus_False|88_108 (ssRNA)
RNA: GGGAGUUCUACAGUCCGACGAUCAAAAGGAUCUUUAUUACAUAAAUAAGGGGCUGGCUCCCCAUGUUUAACAAUGACCUCCAGAAGGAAGGCUUGCAUGGCAGAAUCUAGCACUUCAUCUGUGACACCCGCCUCAUCCAAGCGCAACAGAGGAUUGAGCAUCA
B9: chr1:87185206:87185207:+_ENSG00000097033_ENST00000482504|hu_hu|FALSE|FALSE (ssRNA)
RNA: GGGAGUUCUACAGUCCGACGAUCUGGGUUGUUUAUACGACUUGGAGCUUUUCUAUCCAGUUUCUCAUAAACAAAUUCUUCUAUCCUGGCAUUUGGAUUUGGCUGCAAUAACACUUCAGUUUGUUUCAUUAUUUUUUCUGUCCACAACAGAGGAUUGAGCAUCA
B10: 58038967_58039087_696_3pUTR_ENSMUSG00000024597_ENSMUST00000115366|mouse|control|control (ssRNA)
RNA: GGGAGUUCUACAGUCCGACGAUCGUGGCCGAAGGUGCGCAGGUAGUAGGUGUUGGUGUGGGUGUCAUAGUAGUACUGCUGGUGGUGUCCACUGCCACCCCCCGAGUGCAGGCUGCUGCCCUCGCUCAGCACCGUGUCCCCGCCCAACAGAGGAUUGAGCAUCA
B11: chr5:23948154:23948155:-_ENSMUSG00000028959_ENSMUST00000030800|mus_mus|FALSE|FALSE (ssRNA)
RNA: GGGAGUUCUACAGUCCGACGAUCCAAGGGUGCCACCCCUGCUUCCCGAGCCAGGAUCCUCUCAAGGCAGGGCAUAAAUUGCUGCUCCAGGGGCAUGUAGUUCAACCUCCCAAAGGGCAGGACCAACUUCUGUACCACCUUGCUCAACAGAGGAUUGAGCAUCA
B12: chr4:3761713:3761714:-_ENSMUSG00000028234_ENSMUST00000103009|mus_hu|FALSE|FALSE (ssRNA)
RNA: GGGAGUUCUACAGUCCGACGAUCCUCAACUCCUGGCUCAAUACUGAUGGAAGUAAUCUGCUUAACAAUCUCAGAAGGACUGUGCAAGUCAAUGAGUCGCUUGUGAAUUCUCAUCUGGAAACGAUCCCACGUCUUAGAACCUUCCAACAGAGGAUUGAGCAUCA
B13: 83250160_83251529_1244_CDS_ENSMUSG00000031715_ENSMUST00000043359|mouse|control|control (ssRNA)
RNA: GGGAGUUCUACAGUCCGACGAUCCCAGUUGAAUUUUUUGAACACAGACUUCUCUUUAAUAAGCAUUUCAUAAGAUGUGACACACACAUCCCACUCUCCUGGUAAUAAAACAUCCCUGACAAAUGCAGCUCUUUGCUCUUUAUCCAACAGAGGAUUGAGCAUCA
B14: chr10:62544473:62544474:+_ENSG00000170312_ENST00000395284|hu_hu|motif|central (ssRNA)
RNA: GGGAGUUCUACAGUCCGACGAUCUGUAGUUUUGUGUCUACCCUUAUACACAACUCCAUAGGUACCUUCUCCAAUUUUCUCGGUUUUGGUAUAAUCUUCCAUAGUUAGUCAAUGGGUAUGGUAGAUCCCGGCUUAUUAUUCCGCCAACAGAGGAUUGAGCAUCA
B15: chr3:176767854:176767855:-_ENSG00000177565_ENST00000430069|hu_hu|hu_hu_hu_mus_False|78_88 (ssRNA)
RNA: GGGAGUUCUACAGUCCGACGAUCGACAUCCUUGUUACUGGGCACGUCUUGCCCUCCUUCUCGUAUACAGUGUCUAAGCACGAGCUGCGUAGGGCCACUCGUGCUGUUCUCACUGAGGUUCCAGAUUCUUGCCGUGGAGUCUCCCAACAGAGGAUUGAGCAUCA
B16: chr6:40197388:40197389:+_ENSMUSG00000057716_ENSMUST00000061740|mus_mus|mus_mus_mus_hu_False|18_38 (ssRNA)
RNA: GGGAGUUCUACAGUCCGACGAUCGAGACACUGGGGUGGAUUUAUUCCACCUCUGUUUGGGUGCUAGCCACUAAGACUGUUAUUUUGGGAUUCAUGGCCUUGAAGAUCAAGAGGGAAGGGACGAGAAUGGAAAGAGUCAAGAGUCAACAGAGGAUUGAGCAUCA
B17: chr10:121026873:121026874:-_ENSMUSG00000034667_ENSMUST00000039810|mus_mus|FALSE|FALSE (ssRNA)
RNA: GGGAGUUCUACAGUCCGACGAUCUUCUCUUAUAGAAUACACAUCGGCAUUGAAAAAUUUAAAGAAAUGUAAUGGCUAUCUAUGAAAGAUUACGUUUUGAUUGUUACCCCACAGCUCAUGUGUCUGCAUACACAGAACCAAACACAACAGAGGAUUGAGCAUCA
B18: 100453122_100453242_2085_CDS_ENSG00000111647_ENST00000279907|human|control|control (ssRNA)
RNA: GGGAGUUCUACAGUCCGACGAUCGGGGAAGCUGGUAUAUGUUUUACUAAAAAAAUCACAAUCUUUAAAGUCUUGAAACAAAGCUUCUAGGUCAGAAUGUCGACAGUUUGGACAGUGCCUUGUAUUUGUGGCAAUCAUUUCAGACAACAGAGGAUUGAGCAUCA
B19: chr4:76721835:76721836:+_ENSG00000138768_ENST00000264904|hu_mus|hu_hu_hu_mus_True|18_48 (ssRNA)
RNA: GGGAGUUCUACAGUCCGACGAUCGUUUGGCUGGGGUUUCUGAGACGCUCUGGAAUAUAACUCAUGUUUGCUAAUAAAUCCUAGUUUUCUAUGAAAUUUCUCUUUGCCAAUCCUCUUUCAAUCAGUUUGCUUUAGUUUCUCUUUCAACAGAGGAUUGAGCAUCA
B20: chrX:140365796:140365797:-_ENSMUSG00000031285_ENSMUST00000033642|mus_mus|mus_mus_mus_hu_False|48_78 (ssRNA)
RNA: GGGAGUUCUACAGUCCGACGAUCCUUCUCAUUACUCAGUGCCUGCAAGGUUCUGGUUCUGUAGAAGCUACAGUGGGCGCUGUGAGUGGGACUUGGAAACCCAUUCAUCCGGGAGCCUCGCAUGUUCCUGGAUGUCUUAUCUCUCAACAGAGGAUUGAGCAUCA
B21: chr14:31813938:31813939:-_ENSMUSG00000021917_ENSMUST00000162092|perfect_dup|FALSE|FALSE (ssRNA)
RNA: GGGAGUUCUACAGUCCGACGAUCAACUAUAUAGACAGUCCACCCGAACUGUUCAGCCACGUACCCGUAGAUAAAUCCAACUAUUGCAGAAAAAAGAAUAAUUCCCUGAAACAUCUGUUCAGCUAGCUUCUGGCCCUUGUAAUCCAACAGAGGAUUGAGCAUCA
B22: chr1:109605286:109605287:-_ENSG00000197780_ENST00000461096|hu_mus|hu_hu_hu_mus_True|58_88 (ssRNA)
RNA: GGGAGUUCUACAGUCCGACGAUCAAGUUUCAGAGUAACAUUCAGUAUACUUAAAUCAUGCAAUUAUCCUUAUUAUAAACUAAGGGCAAUAAUAAUUUAAUACCGUAAGUGAACUACACACAAAGCCUGAACCGCGAAAAUGGUCAACAGAGGAUUGAGCAUCA

The other results are listed elsewhere or left out.

This experiment concerns the target T1, UNK ZnF1-3. As to the kind of experiment: nsRBNS (natural sequence RNA bind-n-seq); RBNS binding buffer (assumed for nsRBNS): 25 mM Tris pH 7.5, 150 mM KCl, 3 mM MgCl2, 0.01% Triton X-100, 500 ug/ml BSA, 20 U/ml SUPERase-In, 4 C; UNK is unkempt and MSI1 is Musashi-1; names of the RNAs are library labels; protein concentration not given here; high values mean tight binding.
Regarding B1, the binding signal is 1.33 enrichment R. B2 yielded a binding signal of 2.77 enrichment R. Consider B3, for which the binding signal stood at 0.968 enrichment R. In the case of B4 it was 2.29 enrichment R; in that of B5, 1.28 enrichment R. As to B6, the binding signal is 1.75 enrichment R. Turning to B7, the binding signal was found to be 1.36 enrichment R. In the case of B8 it was 0.869 enrichment R. In the case of B9 it was 0.414 enrichment R; in that of B10, 0.456 enrichment R. In the case of B11 it was 1.02 enrichment R; in that of B12, 1.48 enrichment R. For the molecule B13, the binding signal came out at 1.09 enrichment R. Consider B14, for which the binding signal amounted to 0.303 enrichment R. Molecule B15 displayed a binding signal of 0.338 enrichment R. As to B16, the binding signal was found to be 1.51 enrichment R. With B17 the figure was 1.4 enrichment R. The molecule B18 registered a binding signal of 1.02 enrichment R. On to B19, for which the binding signal came out at 0.478 enrichment R. With B20 the figure was 0.406 enrichment R; with B21, 1.36 enrichment R; with B22, 0.704 enrichment R.
